About 2,200 (0.71%) of roughly 310,000 compounds showed an effect of 50% or more. Effects have a minus sign here. Some of the results follow.

The target of the test is human ether-à-go-go-related gene (hERG) potassium channel (human, UniProt Q12809). Briefly: primary screen, population patch clamp on CHO cells stably expressing hERG.
Chain of human ether-à-go-go-related gene (hERG) potassium channel (Q12809 whole entry, looked up): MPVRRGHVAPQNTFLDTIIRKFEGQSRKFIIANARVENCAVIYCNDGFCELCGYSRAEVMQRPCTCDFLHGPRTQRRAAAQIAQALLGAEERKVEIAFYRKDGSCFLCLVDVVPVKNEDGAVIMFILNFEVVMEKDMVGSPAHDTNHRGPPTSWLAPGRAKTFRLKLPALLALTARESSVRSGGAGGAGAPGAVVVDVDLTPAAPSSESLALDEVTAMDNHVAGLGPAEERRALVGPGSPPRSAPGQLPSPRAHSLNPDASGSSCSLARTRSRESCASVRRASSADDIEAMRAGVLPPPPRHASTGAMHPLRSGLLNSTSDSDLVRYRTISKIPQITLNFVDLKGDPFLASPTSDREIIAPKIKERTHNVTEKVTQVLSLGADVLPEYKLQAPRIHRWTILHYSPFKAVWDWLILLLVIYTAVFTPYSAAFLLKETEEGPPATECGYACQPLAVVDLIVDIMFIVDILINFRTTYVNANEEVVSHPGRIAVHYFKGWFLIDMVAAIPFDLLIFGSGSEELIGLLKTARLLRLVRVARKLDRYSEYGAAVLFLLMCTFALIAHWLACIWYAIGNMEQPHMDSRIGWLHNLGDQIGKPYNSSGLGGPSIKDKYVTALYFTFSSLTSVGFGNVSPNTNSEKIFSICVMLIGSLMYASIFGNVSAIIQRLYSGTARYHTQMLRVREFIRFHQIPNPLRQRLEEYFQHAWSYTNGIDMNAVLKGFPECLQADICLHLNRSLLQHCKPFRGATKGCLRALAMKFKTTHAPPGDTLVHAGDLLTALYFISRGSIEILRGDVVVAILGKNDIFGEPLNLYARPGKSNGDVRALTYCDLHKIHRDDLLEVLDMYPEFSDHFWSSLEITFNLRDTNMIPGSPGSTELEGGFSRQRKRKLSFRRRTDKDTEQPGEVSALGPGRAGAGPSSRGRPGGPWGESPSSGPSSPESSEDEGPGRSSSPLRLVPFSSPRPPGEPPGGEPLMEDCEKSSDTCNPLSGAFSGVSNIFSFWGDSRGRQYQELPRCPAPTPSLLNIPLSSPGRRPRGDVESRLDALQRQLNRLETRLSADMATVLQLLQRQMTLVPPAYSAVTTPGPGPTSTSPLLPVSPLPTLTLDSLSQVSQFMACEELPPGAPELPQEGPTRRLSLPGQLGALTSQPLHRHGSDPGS
As for `CCc1ccc(NS(=O)(=O)c2c(C(=O)N3CCOCC3)c(C)n(C)c2C)cc1`, the “hERG current change (%, negative = inhibition) at 1uM” value worked out at 2.43%.

For `O=C(Cc1cccs1)Nc1ccccn1`, the “hERG current change (%, negative = inhibition) at 1uM” value stood at 16.9%.

Turning to `COc1ccccc1/C=C/C(=O)NCC(=O)N/N=C(\CCC(=O)O)c1ccccc1`, the “hERG current change (%, negative = inhibition) at 1uM” value is reported as -2.9%.

Regarding `O=C(CN1CCN(Cc2ccccc2)CC1)Nc1ccc(Cl)cn1`, the “hERG current change (%, negative = inhibition) at 1uM” value is listed as -70%. Under `COc1ccc([N+](=O)[O-])cc1NC(=O)c1ccc(N(Cc2ccccc2C)S(C)(=O)=O)cc1` stands -2.02%; under `Cc1ccc(C(=O)OCC(=O)N2CC(C)CC(C)C2)cc1S(=O)(=O)N1CCOCC1` (stereo not shown), 6.1%; under `CC(C)(C)c1ccc(/C=C2\SC(=O)N=C2N)cc1`, 7.88%.

With `COCCNC(=O)NC(=O)CN1CCN(C(c2ccccc2)c2ccccc2)CC1`, the “hERG current change (%, negative = inhibition) at 1uM” value is reported as 1.52%.

In the case of `CC(=O)c1c(C)[nH]c(C(=O)CSc2nnc(-c3ccco3)n2Cc2ccccc2)c1C`, the “hERG current change (%, negative = inhibition) at 1uM” value is on record as -5.61%.

In the case of `COc1ccccc1-c1nn(Cc2ccccc2)cc1/C=C/C(=O)O`, the “hERG current change (%, negative = inhibition) at 1uM” value is given as 8.79%. Under `CCN(c1cccc(C)c1)S(=O)(=O)c1ccc(-c2cc(C)no2)s1` stands 11.1%. On to `O=C(O)C1CCC(=O)N(C2CCCCC2)C1c1ccccc1Cl` (stereo not shown), for which the “hERG current change (%, negative = inhibition) at 1uM” value is on record as 12%. The figure for `NC(=O)CNC(=O)C1CCN(S(=O)(=O)c2ccc(-n3cnnn3)cc2)CC1` is -17.1%. Take `CCCOc1ccc(N2C(=O)CC(NCCc3ccc(S(N)(=O)=O)cc3)C2=O)cc1` (stereo not shown): the “hERG current change (%, negative = inhibition) at 1uM” value is 7.21%. On to `Nc1c(C(=O)c2ccc(Br)s2)oc2ccccc12`, for which the “hERG current change (%, negative = inhibition) at 1uM” value is recorded as -3.47%. The figure for `Cc1cc(C)c(OCCCCN(C)Cc2ccccc2)c(C)c1.O=C(O)C(=O)O` is 14.7%; for `CCOC(=O)c1cccc(NC(=O)c2c(O)[nH]c(=O)[nH]c2=O)c1` it is 4.26%. Under `COc1ccccc1CNS(=O)(=O)c1cc2c3c(c1)C(C)C(=O)N3CCC2` (stereo not shown) stands 18.1%; under `CCCCCOC(=O)CSc1nnc(-c2ccccc2)c(=O)[nH]1`, 4.84%; under `Cc1ccc(N(CC(=O)NC2CCCC2)C(=O)CCC(=O)Nc2nc(C)cs2)cc1`, 7.5%. The figure for `Cc1ccc(NC(=O)CCCc2c[nH]c3ccccc23)nc1` is 8.81%; for `CC1Cc2nc(SCC(=O)Nc3nc4ccccc4s3)n(C)c(=O)c2S1` (stereo not shown) it is -0.256%. In the case of `CC1Cc2ccccc2N1C(=O)CCNS(=O)(=O)c1cccc2nsnc12` (stereo not shown), the “hERG current change (%, negative = inhibition) at 1uM” value came out at 11%. Under `Cc1c(C=O)c2ccccc2n1CC(=O)NC(C)c1ccccc1` (stereo not shown) stands 15.2%; under `CCN(CC)C(=O)CSc1nnc(-c2cc(-c3ccc(Cl)cc3)nc3ccccc23)o1`, 6.61%. Regarding `COC(=O)c1ccc(S(=O)(=O)NCc2ccc(S(N)(=O)=O)cc2)o1`, the “hERG current change (%, negative = inhibition) at 1uM” value turned out to be 14.4%.

For the molecule `COc1cc2c(C#N)c(N3CCc4ccccc4C3)nc(N)c2c(N)n1`, the “hERG current change (%, negative = inhibition) at 1uM” value came out at 11.1%. The figure for `CCOC(=O)c1ccc(OCCOc2cccc(C)c2)cc1` is 12.1%; for `CCn1c(-c2cc(Br)cc(OC)c2O)nc2cc(S(=O)(=O)N(C)C)ccc21` it is 11.3%; for `CN(C)c1ccc(NC(=O)CN2C(=O)CN=C(c3ccccc3)c3cc(Cl)ccc32)cc1` it is 5.96%. Under `Cc1ccc(C)c(NC(=O)CSc2nnc3n2CCCCC3)c1` stands 10.3%; under `CCCCn1nnc(NC(=O)c2ccc(-c3ccccc3)cc2)n1`, 13.7%; under `COc1ccc(CCn2c(C)nc3c(c(=O)c4ccccc4n3C)c2=O)cc1`, 1.18%.

In the case of `C[C@@H]1CN(C(=O)c2nc3ccc(Cl)cn3c2CN2CCc3sccc3C2)C[C@H](C)O1`, the “hERG current change (%, negative = inhibition) at 1uM” value was determined as 7.7%. The figure for `COc1ccc(COc2ccc(S(=O)(=O)N3CCCC3)cc2C(N)=O)cc1F` is 17.7%; for `COc1ccnc(Oc2ccc(F)cc2)c1C(=O)N/C=N/OCc1ccc(F)cc1` it is 10.2%; for `Cc1noc(C)c1COC(=O)c1cc(=O)[nH]c2ccccc12` it is -10.1%. The figure for `COc1ccc(/C=N/NC(=O)c2ccoc2C)cc1COc1ccc(Cl)cc1` is 10.7%; for `O=C(c1c(Cl)cccc1Cl)N1CCCCCC1` it is 6.36%; for `C=CCSc1cc(C)nc2c(-c3ccc(Cl)cc3)c(C)nn12` it is 4.01%. As to `COC(=O)c1cc(C(=O)c2ccccc2)n2c(=O)/c(=C\N(C)C)sc12`, the “hERG current change (%, negative = inhibition) at 1uM” value is listed as 8.9%. The figure for `CCOC(=O)c1c(C)[nH]c(C(=O)CSc2nnnn2-c2ccccc2)c1C` is 18.6%. With `Cc1ccc(C(=O)COc2nc(C)nc3ccccc23)cc1`, the “hERG current change (%, negative = inhibition) at 1uM” value was determined as 25.4%. Under `CC(C)[C@H](NC(=O)C1CCN(S(=O)(=O)c2ccccc2)CC1)C(=O)NCc1ccncc1` stands 8.5%; under `O=C(NC(Cc1ccccc1)C(=O)O)/C(=C\c1ccccc1)NC(=O)c1ccco1` (stereo not shown), 1.26%; under `N#CCCCCn1c(-c2cncs2)nc2ccccc21`, -10.9%. Under `O=c1ccc2cc(O)c(O)cc2o1` stands 15.7%. For the molecule `CC(C)(C)c1ccc(OCCC(=O)OCC(=O)NC2CCS(=O)(=O)C2)cc1` (stereo not shown), the “hERG current change (%, negative = inhibition) at 1uM” value is on record as -6.48%. The figure for `COc1ccc(N2CCN(S(=O)(=O)c3cc(-c4cc(C)no4)ccc3C(C)C)CC2)cc1` is 5.37%; for `CCN(CC)CCn1c2c(c(SCC(=O)Nc3nc(C)cs3)nc1=O)CCC2` it is -7.88%; for `O=C(COC(=O)C(Cc1ccccc1)NC(=O)c1ccccc1)c1ccccc1` (stereo not shown) it is 8.08%.

With `CCC(SC1=N/C(=C/c2ccccc2)C(=O)N1c1ccccc1)C(=O)Nc1cc(C)on1` (stereo not shown), the “hERG current change (%, negative = inhibition) at 1uM” value turned out to be 12.7%.

Regarding `Cc1cc(-c2ccccc2)c2c(n1)sc1c(O)cc(=O)[nH]c12`, the “hERG current change (%, negative = inhibition) at 1uM” value stood at 11.2%. Take `Cc1ccc(NC(=O)c2ccc(NCCc3ccccc3)c([N+](=O)[O-])c2)cc1F`: the “hERG current change (%, negative = inhibition) at 1uM” value was found to be 8.08%. As for `O=C(CSc1nncn1-c1ccccc1F)NC1CCCCC1`, the “hERG current change (%, negative = inhibition) at 1uM” value stood at 4.85%.

Values taken from paper PMC4336329 (PLoS ONE, 2015).
